Some of the results follow.
Tested on: HepG2
Experiment: cytotoxicity call (relative viability < 0.9)
Settings: 10 µM

Row | Compound | cytotoxicity call
1 | COc1cccc(C#Cc2ccc3c(c2)O[C@H](CN(C)C(C)=O)[C@@H](C)CN([C@@H](C)CO)S3(=O)=O)c1 | inactive
2 | O=C(C[C@H]1C[C@@H]2c3cc(NC(=O)Nc4ccc(C(F)(F)F)cc4)ccc3O[C@@H]2[C@@H](CO)O1)NCCc1ccccc1 | inactive
3 | C[C@@H]1CN([C@@H](C)CO)C(=O)c2cc(NC(=O)CCC(F)(F)F)ccc2O[C@@H](C)CCCCO[C@@H]1CN(C)C(=O)Nc1cccc2ccccc12 | inactive
4 | CC(C)NC(=O)N(C)C[C@@H]1Oc2c(NS(=O)(=O)c3cn(C)cn3)cccc2C(=O)N([C@@H](C)CO)C[C@@H]1C | inactive
5 | C[C@H](CO)N1C[C@H](C)[C@H](CN(C)S(=O)(=O)c2cccs2)Oc2ncc(C#CC(C)(C)O)cc2C1=O | inactive
6 | Cc1noc(C)c1S(=O)(=O)N(C)C[C@@H]1Oc2ccc(NS(=O)(=O)c3ccc(F)cc3)cc2CC(=O)N([C@@H](C)CO)C[C@H]1C | inactive
7 | NCC[C@@H]1CC[C@H](NC(=O)C2CCCC2)[C@H](CO)O1 | inactive
8 | C[C@@H]1CN([C@@H](C)CO)C(=O)Cc2cc(NC(=O)Nc3ccc(C(F)(F)F)cc3)ccc2O[C@@H]1CN(C)Cc1ccc(Cl)c(Cl)c1 | active
9 | [N-]=[N+]=Nc1ccccc1[C@H]1OC(c2ccc(OCCCO)cc2)=N[C@@]1(CCS(=O)(=O)c1ccccc1)C(=O)N1CCCCC1 | inactive
10 | Cc1noc(C)c1S(=O)(=O)N(C)C[C@H]1OCCCC[C@@H](C)Oc2ccc(N(C)C)cc2C(=O)N([C@H](C)CO)C[C@@H]1C | inactive
11 | C[C@H]1CN([C@@H](C)CO)C(=O)c2cc(NC(=O)Nc3ccc4c(c3)OCO4)ccc2O[C@H]1CN(C)Cc1ccc(Oc2ccccc2)cc1 | inactive
12 | COCC(=O)Nc1ccc2c(c1)[C@@H]1C[C@@H](CC(=O)N3CCOCC3)O[C@H](CO)[C@@H]1O2 | inactive
13 | C[C@@H]1CCCCO[C@@H](CN(C)S(=O)(=O)c2cccs2)[C@H](C)CN([C@H](C)CO)C(=O)c2cc(NC(=O)Cc3ccccc3)ccc2O1 | active
14 | C[C@@H]1CCCCO[C@@H](CN(C)S(=O)(=O)c2ccc(F)cc2)[C@H](C)CN([C@H](C)CO)C(=O)c2cc(NC(=O)Nc3ccc(F)cc3)ccc2O1 | active
15 | C[C@@H]1CN([C@@H](C)CO)C(=O)c2cc(NC(=O)C3CCCCC3)ccc2O[C@@H]1CN(C)Cc1ccc(Oc2ccccc2)cc1 | inactive
16 | NCCCCNCCCN | inactive
17 | CO[C@H]1CN(C)C(=O)c2cc(NC(=O)Nc3cccc(Cl)c3)ccc2OC[C@H](C)N(C(=O)Nc2c(C)noc2C)C[C@@H]1C | inactive
18 | C[C@@H]1CCCCO[C@H](CN(C)C(=O)Cc2ccccc2)[C@@H](C)CN([C@@H](C)CO)C(=O)c2cc(NS(=O)(=O)c3cccs3)ccc2O1 | inactive
19 | C[C@@H]1CCCCO[C@@H](CN(C)C(=O)Nc2ccccc2)[C@H](C)CN([C@H](C)CO)C(=O)c2cc(NC(=O)Cc3ccccc3)ccc2O1 | inactive
20 | C[C@@H]1CCCCO[C@@H](CN(C)C(=O)Nc2cccc3ccccc23)[C@H](C)CN([C@@H](C)CO)C(=O)c2cc(NC(=O)c3ccncc3)ccc2O1 | inactive

Row | Compound | cytotoxicity call
21 | COC(=O)c1c(CC[C@@H](CO)NC(=O)N[C@@H](C)Cn2cc(C3(O)CCCCC3)nn2)oc(C(C)=O)c1C(=O)OC | inactive
22 | COC(=O)Nc1nc2cc(C(=O)c3ccccc3)ccc2[nH]1 | active
23 | C[C@@H](O)C#Cc1ccc2c(c1)O[C@@H](CN(C)C(=O)c1ccccc1)[C@@H](C)CN([C@@H](C)CO)S2(=O)=O | inactive
24 | CS(=O)(=O)Nc1ccc2c(c1)[C@@H]1C[C@@H](CC(=O)NCc3ccc(-c4ccccc4)cc3)O[C@@H](CO)[C@@H]1O2 | inactive
25 | CC(C)(C)[S@@](=O)N1Cc2cc(C(=O)NCc3ccccn3)nc(-c3cccc(-c4ccccc4F)c3)c2[C@H]1CCO | inactive
26 | C[C@H]1CN([C@@H](C)CO)S(=O)(=O)c2ccc(Br)cc2O[C@H]1CN(C)C(=O)NC1CCCCC1 | inactive
27 | C[C@@H]1CN([C@H](C)CO)S(=O)(=O)c2ccc(C#Cc3ccccc3F)cc2O[C@H]1CN(C)C(=O)Cc1cccnc1 | inactive
28 | COc1ccc(NC(=O)Nc2ccc3c(c2)C(=O)N([C@@H](C)CO)C[C@@H](C)[C@@H](CN(C)Cc2ccc(C(=O)Nc4ccccc4N)cc2)O3)cc1 | inactive
29 | CC(C)NC(=O)N[C@H]1C=C[C@H](CC(=O)O)O[C@H]1CO | inactive
30 | CC(C)(C)OC(=O)N1CCNC(=O)C1 | inactive
31 | COc1ccc(CN(C)C[C@H]2Oc3ccc(NS(C)(=O)=O)cc3C(=O)N([C@@H](C)CO)C[C@@H]2C)cc1 | inactive
32 | C[C@@H]1CN([C@@H](C)CO)C(=O)Cc2cc(NC(=O)Nc3cccc4ccccc34)ccc2O[C@H]1CN(C)Cc1ccc(Oc2ccccc2)cc1 | inactive
33 | C[C@@H]1CN([C@@H](C)CO)C(=O)c2cc(-c3cncnc3)cnc2O[C@@H]1CN(C)C(=O)Nc1ccc2c(c1)OCO2 | inactive
34 | C[C@@H]1CCCCO[C@@H](CN(C)C(=O)Nc2cccc3ccccc23)[C@@H](C)CN([C@H](C)CO)C(=O)c2cc(NS(=O)(=O)c3ccc(F)cc3)ccc2O1 | inactive
35 | COCC(=O)Nc1ccc2c(c1)C(=O)N(C)[C@@H]1CC[C@@H](CC(=O)N3CCc4ccccc4C3)O[C@H]1CO2 | inactive
36 | C[C@@H]1CN([C@H](C)CO)C(=O)c2cc(NC(=O)Nc3ccc(C(F)(F)F)cc3)ccc2O[C@@H](C)CCCCO[C@@H]1CN(C)S(=O)(=O)c1ccccc1 | inactive
37 | CO[C@H](C(=O)[C@@H](O)[C@@H](C)O)[C@@H]1Cc2cc3cc(O[C@H]4C[C@@H](O[C@H]5C[C@@H](O)[C@H](O)[C@@H](C)O5)[C@@H](O)[C@@H](C)O4)c(C)c(O)c3c(O)c2C(=O)[C@H]1O[C@H]1C[C@@H](O[C@H]2C[C@@H](O[C@H]3C[C@](C)(O)[C@H](O)[C@@H](C)O3)[C@H](O)[C@@H](C)O2)[C@H](O)[C@@H](C)O1 | active
38 | C[C@H](O)C#Cc1ccc2c(c1)O[C@H](CN(C)C(=O)CN(C)C)[C@H](C)CN([C@@H](C)CO)S2(=O)=O | inactive
39 | Cc1noc(C)c1S(=O)(=O)Nc1ccc2c(c1)C(=O)N([C@H](C)CO)C[C@H](C)[C@H](CN(C)Cc1ccc(C(=O)Nc3ccccc3N)cc1)OCCCC[C@@H](C)O2 | inactive
40 | CC1=NN(c2ccccc2)C(=O)C1 | inactive

Source: the antibiotic and cytotoxicity screens of Wong et al. (2023)
